# Test results as given in the supplement of paper PMC11417369.
# ± gives the standard deviation of the averaged measurements. This is one part of the list.
# System: PfAP2-I AP2 domain 3 (GST-tagged)
# Experiment: gcPBM binding intensity (ln(normalized median fluorescence intensity)); higher = stronger DNA binding
# Procedure, shortened: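 Each value is the highest Masliner-normalised natural-log median intensity across replicate spots of either orientation of a probe. The probes were primer-extended double-stranded 36-bp intergenic genomic sequences on an Agilent 4 × 180k array, alongside negative controls, exposed for 1 h to GST-tagged P. falciparum DNA-binding domains expressed in E. coli. Bound protein was picked up with Alexa488 anti-GST antibody and scanned at 488 nm.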
row,Sequence,gcPBM binding intensity (ln)
1,TATACGTGTTTTATTTGTACTTAAGCAGGTAAGCAT [XGTACX_site193],8.22 ± 0.7
2,CTATATATTTTTTCTTAACACACATATATAAAATAA [CACACA_site9165],7.95 ± 0.35
3,GTTAATTCTATGAATTGTACTTAAATATAATTATAT [XGTACX_site2785],7.55 ± 0.4
4,ATAAATACTAAAAATGAAATATAGAAAATAGCAATA [CACACA_negctrl_site501],7.76 ± 0.75
5,TATAATATATTATATACACACATTATAAAATACCCA [CACACA_site4858],7.86 ± 0.19
6,CAAAATAAAAATAACACACACATTTATATAAATACA [CACACA_site4790],7.71 ± 0.5
7,ACAGTTAAAACAATAACACACAAAGAAAAAAAAAAA [CACACA_site737],8.04 ± 0.85
8,TATATTTTTATTGAACGTACAAAAAGTCGAAAACAG [XGTACX_site3967],8.2 ± 0.28
9,TTTAAATACAGACATACACACATACACGCACATATA [CACACA_site6400],8.22 ± 0.29
10,AGGTAGAAATTGTTAAAAAATCATACATATTATATA [CACACA_negctrl_site622],7.49 ± 0.4
11,AATAATATTTAATACGCACACAATAATAATATAAAA [CACACA_site1763],8.33 ± 0.42
12,TCTTATAAAGGTAATTGTACATATTTATAATTTCTT [XGTACX_site4847],7.63 ± 0.3
13,GTGAAAGGAAAAGTTGAACACACAAAGTAAACTATA [CACACA_site9178],7.72 ± 0.71
14,ATATATTATTATACATGTACATATATAGATATATAT [XGTACX_site4358],7.83 ± 0.37
15,CACACGCACGAACACACACACATATAAATATAAATA [CACACA_site6299],8.38 ± 0.092
16,AACAATAATTTTGAATGTACATATAAATATTTTTAT [XGTACX_site5501],7.58 ± 0.42
17,ATATACATATAGGATGCACACATAATTCAAATACAA [CACACA_site8120],8.29 ± 0.57
18,AAAAAAAAGAATAGCACACACACATATATAAATATA [CACACA_site630],7.95 ± 0.25
19,TATAATGGTTCTGGTGTGCACCATGACAGAATCAAG,9.88 ± 0.22
20,ATATTAAACAAACACACACACATATATATATATATA [CACACA_site3383],9.4 ± 0.51
21,AATTAATGGTTAAAGGTGCACAATACATATATTACA [GTGCAC_site9943],11.32 ± 0.035
22,TGCATATACTCAAGCACACATATATATATATATATA [CACACA_site4733],9.44 ± 0.58
23,TTTTTTTTTTTTTTTTTTTTTTTTTTTTTTTGGGGG [CACACA_negctrl_site1570],8.98 ± 1.1

row,Sequence,gcPBM binding intensity (ln)
1,ATATATTGAAAATATAGTACATAATAAATGTTCTTT [XGTACX_site8474],7.5 ± 0.39
2,AATAAATTTAAACACACACACACATATATATATATA [CACACA_site4621],9.33 ± 0.37
3,TATATACATAAACACACACACACATATATATATATA [CACACA_site8707],9.52 ± 0.76
4,ATAAAATAAGACAAAAAAAAAATATATATATATATA [TGCATGCA_negctrl_site314],9.315 ± 0.064
5,CCTTGTCTTTTTTTTTTTTTTTTTTCTTCTTATTTT [GTGCAC_negctrl_site523],7.87 ± 0.45
6,AAAAAAAAAAAAAAATGTACATATATATATATATTA [XGTACX_site7330],8.05 ± 0.26
7,AGTAGATATAATATATGTACATATATATATATATAT [XGTACX_site7186],9.26 ± 0.75
8,AATATAAATATAAATATAAATAAATAAATAAATAAA [CACACA_negctrl_site291],8.05 ± 0.81
9,GTAATTTTTTTCTATACACACATATATATAATATAT [CACACA_site2655],8.12 ± 0.58
10,AAAGTAAAAGGGTTTGGTACACATATAATATATTAG [XGTACX_site6036],7.95 ± 0.63
11,ATAACTTTTATTTGTACACACATACATCTATATTAT [CACACA_site6595],8.39 ± 0.43
12,AGTAAAAGAAAGCACACACACATGTATTTATGTATG [CACACA_site5998],8.02 ± 0.46
13,CATTTATATAAAGAATGTACACACAGAAATGCACAC [XGTACX_site4718],10.2 ± 0.2
14,TAGTATTTATATGATTAACACACATATGGGTATTAA [CACACA_site8363],7.47 ± 0.47
15,ATATACACCTGAGAGGTGCATATATATAAAATTTAC,10.6 ± 0.67
16,CATAATAGTTATAAAATACACACCAGGCATGATAAA [CACACA_site329],7.61 ± 0.72
17,AAAAAAAAAAAAAAAAGTACTCAATAATAATTACAT [XGTACX_site670],8.66 ± 0.45
18,AATGTAGTTTATCGATGTACACAAAATAAAGAGAAG [XGTACX_site6956],8.64 ± 0.28
19,CCGTACAATTTTGTCACACATAAAATACTTATGTAT [CACACA_site4871],7.66 ± 0.51
20,ATAAATACATATAAAAGTACACACACACACATATAT [XGTACX_site1744],8.16 ± 0.25
21,ATGTGCAAATATTAAAGTACTAAATTTTATTATTTT [XGTACX_site7306],10 ± 0.54
22,TGTATATGTGAAGCAAGGGATGCGGCAGACATAACA [CACACA_negctrl_site1339],8.34 ± 1.1
23,TGAAATTTCAATACATGTACATATAAAAAAAAAAAA [XGTACX_site4424],7.99 ± 0.51

row,Sequence,gcPBM binding intensity (ln)
1,TTTTTTTTTTCTACAAGTACATATTTTCATTTAACA [XGTACX_site6621],7.99 ± 0.53
2,AAATTAAAAAAAAATAAATAAAAAAAAAAAAAAAAT [CACACA_negctrl_site1611],7.55 ± 0.42
3,AAAAAAAAAAAAAAATGTACATATATATATTATAAA [XGTACX_site518],8.09 ± 0.31
4,TATAAAATAAGACATGCATGTTATACATATATATTT [TGCATGCA_site156],7.58 ± 0.57
5,AAACGTATGTTATTTACACACCCTTCCACTTTTATA [CACACA_site3337],7.89 ± 0.69
6,ATGTTTTTTATTCTTCGTACGTATGAACGATAGTGT [XGTACX_site4225],8.08 ± 0.59
7,CATTATTATTTTATAACACACACATATATATTATAT [CACACA_site8405],8.09 ± 0.38
8,AAAAAAAAAAAAATTACACACATACATATAATAATA [CACACA_site8680],7.75 ± 0.18
9,ATATTAAGAATAAACAGTACATATAATAAATACCAT [XGTACX_site5933],7.83 ± 0.61
10,TTTGTGTATATATAATGTACATTATATTTTTATTAT [XGTACX_site6506],8.13 ± 0.45
11,AAAAAAAATATACATACATGCATACATAAGTTTCTA [TGCATGCA_site998],7.55 ± 0.73
12,TATATATATGGACACACACACACATATATATATATA [CACACA_site6121],9.2 ± 0.3
13,ATTAAAAAAAAAGAGCGTACAAATAATTACTTCTTT [XGTACX_site8262],7.83 ± 0.3
14,TATAAATTTATAAATAGTACATATATTTATATATAT [XGTACX_site6433],8.12 ± 0.64
15,CAGATAGACTTATATGCATGCATTCACCTGCCAACA [TGCATGCA_site158],8.31 ± 0.92
16,ATATTACATAATATATGTACACACGCAAATACTTAT [XGTACX_site671],7.95 ± 0.35
17,TAAGCATAAATGTATACATGCGATGCATACACATAT [TGCATGCA_site749],7.39 ± 0.64
18,ATGAAATTATATTGGGGTACGTCAAAAAAGGAGATA [XGTACX_site7451],8.19 ± 0.39
19,GGGTATATATTATTATGTACACATGTATAAAATAAG [XGTACX_site2633],8.02 ± 0.3
20,ATTCTATATACACGCACACACACTTATATATATATA [CACACA_site3322],9.18 ± 0.23
21,TTATTATTATATGAATGTACTTAAAAATACATTTTG [XGTACX_site2959],7.43 ± 0.49
22,CCCTTTTCTAAATATTGTACGTATAAATTATATTAC [XGTACX_site7676],8.535 ± 0.007
23,TTGTTCTTTTTTTTTTTATTTTTTAATTTGAAAAGA [CACACA_negctrl_site209],7.72 ± 0.5

row,Sequence,gcPBM binding intensity (ln)
1,AAAAAGAAAAAACGAAGTACAATTATAAGATTATAT [XGTACX_site410],7.56 ± 0.68
2,GTACAGATAAATATTACACACATTTTCATTTTTAAC [CACACA_site5140],7.86 ± 0.52
3,TATGTGCCAAGACACACACACATATTTATATTTATA [CACACA_site6360],8.09 ± 0.4
4,TATGAAAAATATCTTTGTACTTAGAAATATATACAC [XGTACX_site5393],7.86 ± 0.34
5,GTGATTTAATTGTGTTGTACATATTTATAAATAAAA [XGTACX_site8966],8.37 ± 0.13
6,AAAAAAAAAAGAAACACACACATTTGTATTTAATAT [CACACA_site5184],7.47 ± 0.67
7,AGGACTAATATTTGAACACACATATAATATATACAT [CACACA_site3998],7.71 ± 0.61
8,AATATATACATATATGTACACACATTACAGATGTAC [CACACA_site8227],7.9 ± 0.45
9,ATAGAATCTGGTAGCTGTACGAGTCGTAGAGTGCAG [XGTACX_site2026],8.07 ± 0.57
10,TTTTTCTTGAATCGAAGTACTTAGGAGGGGATATTT [XGTACX_site2862],8.4 ± 0.34
11,ACACAATATATATATTGTACATACACATATTTACTA [XGTACX_site1872],8.13 ± 0.34
12,GAAATGTATATTTTTACATGCAAATAAAATATATAA [TGCATGCA_site439],8.16 ± 0.7
13,ATAACGACCTAGACGTGTACATACAAAGGAATGAAA [XGTACX_site4870],7.89 ± 0.66
14,CATACACATAGACACACACACATATATACCTATATA [CACACA_site6644],8.01 ± 0.4
15,GAATATAAACATATTACACACATCTATAGGTACATT [CACACA_site6983],7.83 ± 0.52
16,ATTTTTTAAAAAGTAACACACACTCTTATAAATAAC [CACACA_site7668],7.91 ± 0.52
17,AAAGTAAAAATATACTGTACAAATTTTTTCCCCTCT [XGTACX_site171],7.73 ± 0.52
18,AAAGAAAGCACATACACACACAAAAAAAAAAAAGAA [CACACA_site776],8.03 ± 0.32
19,AAACAAAAAAAAAAAAAAAAAAAAAAAAAAAAAAAA [GTGCAC_negctrl_site254],8.41 ± 1
20,GATGCACTTTAAAAATGTACTTATACCTTTAATTGT [XGTACX_site6395],7.87 ± 0.49
